# According to the supplement of paper PMC3334620:
# Over roughly 33,000 sequences, “E-score (-0.5 to 0.5)” has its median near -0.04; the highest 2% begin near 0.36. This is one part of the list.
# Biological target: T1, Hmlalpha2 (UniProt P0CY09)
# T1 sequence: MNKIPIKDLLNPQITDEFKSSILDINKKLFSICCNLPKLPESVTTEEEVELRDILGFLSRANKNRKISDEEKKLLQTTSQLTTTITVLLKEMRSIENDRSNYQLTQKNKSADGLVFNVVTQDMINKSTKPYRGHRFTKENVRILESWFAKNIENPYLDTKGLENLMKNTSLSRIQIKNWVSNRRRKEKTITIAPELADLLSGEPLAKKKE
# Test: PBM E-score (8-mer binding enrichment) (E-score (-0.5 to 0.5)); higher = stronger / more preferred TF binding; most listed sequences are background and not binding sites
# Settings: protein concentration: 200 nM; construct: GST-full length
# In short: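 The E-score, a modified Wilcoxon-Mann-Whitney statistic, was computed by the Universal PBM Analysis Suite for every ungapped eight-base word pooled with its reverse complement. Scans behind it were normalised with masliner after bound GST-tagged yeast transcription factors were detected with fluorescent anti-GST. The proteins, at about 100-200 nM, had been applied to universal all-10-mer Agilent arrays made double-stranded by primer extension.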
row,Sequence,PBM E-score
1,CATCGAGC,-0.105
2,CTCCGGTC,-0.236
3,GAATGGCC,-0.175
4,CCTCCTGA,-0.0675
5,GGACTTAC,0.0953
6,ATGAGATA,0.0757
7,TCCGAGGA,-0.27
8,CCCGTCTC,-0.259
9,CCGGTCCG,-0.401
10,CTAAGCAG,-0.0545
11,ATGGGTTG,0.0606
12,GCACCCAA,-0.283
13,TCAATCCA,-0.113
14,GCGATCAA,0.0688
15,GTCATGTA,0.442
16,GATTGGCA,-0.141
17,AGCGTATC,-0.037
18,GCCCTCGA,-0.0838
19,CGTAGGCC,0.00375
20,AGCTAGAC,-0.107
21,CTACCCTC,-0.301
22,ACCAGCAA,-0.11
23,ACGAGCCT,0.0405
24,GATGCTAA,0.0719
25,ACTCCGGC,-0.016

row,Sequence,PBM E-score
1,AAGCATAA,0.0376
2,GACAACTA,0.192
3,ATCGTAGC,0.0907
4,ATGCATCG,0.147
5,AAAGAGAC,-0.116
6,GAATGTTA,0.287
7,AGCGTCCG,-0.0393
8,AGTGTGAA,0.108
9,AATTTAGG,0.127
10,ACGGCGAC,-0.161
11,CGGATTTA,0.0972
12,CCAGCAAC,0.0365
13,AGAGGCAT,-0.128
14,AGACATAC,0.242
15,CGCCCCCG,-0.26
16,ACTTACGC,0.28
17,TGGATGAA,-0.0166
18,GTCGGGGA,-0.0496
19,GACTCTGA,-0.12
20,AAGGCCCC,-0.17
21,GCAGGCGC,-0.153
22,ATTCGAAC,0.159
23,GCGCACGC,-0.233
24,ACAATCAC,0.0329
25,AGGGAGCC,-0.286

row,Sequence,PBM E-score
1,CTGGCTAA,-0.146
2,CAATGGTA,0.00497
3,AATTAGGG,0.00029
4,ACGAACAA,0.332
5,ACTGTGTC,0.174
6,GAAGAATA,0.117
7,CACGCACA,0.192
8,GCCACACA,-0.192
9,AGTGTAAC,0.198
10,CGGGGACG,-0.201
11,CGGAGTAG,-0.239
12,CCGAGGAG,-0.301
13,AGATAGCT,-0.117
14,ACGAGGCG,0.127
15,GACAATTA,0.246
16,AAGAATAC,0.244
17,ATACTCGG,0.0213
18,AGTGTTTC,0.0934
19,TGCTCACA,-0.0264
20,AGTTGAAC,0.0261
21,ATGCTGTG,0.238
22,ATAACGTA,0.321
23,CACGAACA,0.253
24,TCCTGGCA,-0.158
25,ATGTTTGA,0.153

row,Sequence,PBM E-score
1,CATGTATA,0.466
2,GCGCTCCC,-0.274
3,CGCCGGGA,-0.319
4,GCGAATCA,-0.0266
5,ATGAGTGG,-0.233
6,CCAAGGCC,-0.267
7,GCTTAGAC,-0.285
8,ACGCGCAT,0.278
9,CAATAAAG,-0.0833
10,CCCCTGGA,-0.236
11,TAAGAGCA,0.027
12,TCCGTGAA,0.145
13,CTACTGGA,-0.198
14,AGCGAACA,0.049
15,ACGATCGC,-0.00669
16,AGGGACAA,-0.273
17,ACCCCCTA,-0.345
18,CACTTGAG,-0.22
19,GTAAAGGA,0.252
20,AAATGATT,0.157
21,AGATATCC,0.0071
22,ATGTCAGA,0.149
23,GTTTCGAA,0.0112
24,AGGTCTCG,-0.0533
25,TCCTTGCA,-0.139

row,Sequence,PBM E-score
1,AGCCCCCA,-0.324
2,GTACGAAC,0.152
3,GCAGAACA,0.131
4,GACCAGAA,-0.0844
5,ACCAACCG,-0.107
6,GCGAGGCC,-0.23
7,ACGAATAA,0.0594
8,GCCGGGCC,-0.212
9,GGGCCTTA,-0.0909
10,ATCTGGAC,-0.105
11,AGGTCAGG,-0.274
12,GGATTTCA,-0.111
13,ATTTTAGC,-0.0525
14,CGCGTGTC,0.262
15,TATGGGCA,-0.0609
16,GCGGCCCC,-0.354
17,TGTTTAAA,0.34
18,ATCATACA,0.252
19,GAAAAGCC,-0.395
20,ATCATTAG,0.0107
21,GAACAAGC,0.117
22,ACCTGGTA,-0.0673
23,ATTAGGTG,-0.102
24,ACAGCTAA,0.206
25,CGCTCATC,-0.112

row,Sequence,PBM E-score
1,GCGGAAGA,-0.139
2,CTTGGTCA,0.00341
3,GCACGCTA,-0.192
4,AGGGCTAC,-0.23
5,ATGGGTCC,-0.185
6,AGCAGCTC,-0.264
7,CAGATCGC,-0.0789
8,AGCGGGAG,-0.247
9,GGGTCACC,-0.315
10,ATATCCCC,-0.163
11,CGGTCACG,-0.263
12,GCCGGCTA,-0.171
13,AGCAAACC,0.111
14,ACGGTCCC,-0.356
15,CTGACGAA,0.0347
16,AGAGTCGA,-0.214
17,CCCCACCA,-0.158
18,ATGGGATC,-0.107
19,GACGCTAA,-0.0516
20,GCACTGCA,-0.074
21,ATCTAGTC,-0.129
22,AAACTTAC,0.25
23,AAAACTGT,0.145
24,CGTTATGA,-0.0781
25,CGTCCTCC,-0.305

row,Sequence,PBM E-score
1,AGCTAAAC,0.0279
2,ACGCGAAA,0.15
3,CTCGATCA,-0.0171
4,AGTTGATA,0.0733
5,AGTCACTC,-0.0916
6,CTGAACAG,-0.1
7,GACTCACA,-0.0004
8,CTGGAACA,0.0869
9,GTCCCGCA,-0.264
10,GCGCTGCA,0.00088
11,CGCGCTGC,-0.0702
12,CCCGCTGC,-0.247
13,GTCTTATA,0.00859
14,ACAGGGCA,0.0594
15,AGCACTCC,0.0595
16,CACCTGTC,-0.266
17,GGTATTCA,0.133
18,CAGATAAG,-0.00314
19,CGATCCCC,-0.154
20,AGCGGCCA,-0.265
21,AAATCACA,0.165
22,ATTCAGTC,-0.0888
